Results on 103 compounds are retold here after PubChem BioAssay AID1625 (Sanford-Burnham Center for Chemical Genomics, 2009).

This is one part of the list. The main result of the screen is listed elsewhere. These columns were measured beside it and carry no call. The list favours compounds with an active or inconclusive main result.

This assay can be described thus: up-regulation of insulin promoter-GFP reporter – imaging, high-content screening, mouse beta cells (AID 1625).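 Also: total cells summed across four imaged fields per well.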 Conditions: MIN6 insulin promoter-GFP reporter, measured here: cytotoxicity, nuclei count, at 5 µM.
As for `COc1ccc(C(=O)Nn2cnnc2)cc1OC`, the cell count worked out at 877 cells.

`CN(C)c1nc(N)nc(/C(C#N)=C/C2CC3C=CC2C3)n1` (stereo not drawn): the cell count turned out to be 1360 cells. `O=C(COC(=O)Cc1ccccc1[N+](=O)[O-])NCc1ccccc1Cl` came in with a cell count of 453 cells. As for `Cc1nc2ncnn2c(Nc2ccc3c(c2)OCO3)c1Cc1ccccc1`, the cell count worked out at 221 cells. The compound `CCOc1cc(C)c(S(=O)(=O)Nc2ccc3cn[nH]c3c2)cc1C` showed a cell count of 1320 cells. In the case of `COc1ccccc1C(=O)NC(=S)/C=C1/N(C)c2ccccc2C1(C)C`, the cell count is 498 cells.

`Oc1c(N=Nc2ccccn2)ccc2ccccc12` displayed a cell count of 251 cells. Take `Cc1ccccc1NCC(=O)N/N=C/c1c[nH]c2ccccc12`: the cell count was determined as 1130 cells. In turn, `CCOC(=O)c1cc(C(C)(C)C)oc1CNC(=O)c1c(C)oc2c1CCCC2` registered a cell count of 452 cells. The same measure for `CCN(CC)c1ccc(/C=C(/C#N)C(=O)NC(C)C)o1`: 1550 cells; for `CCCCCCCCCCn1ccc(=N)cc1`: 233 cells. The same measure for `COC(=O)c1ccc2c(c1)C(C)(C)C(/C=C/c1ccccc1O)=[N+]2C`: 392 cells. In the case of `Cn1c(/C(C#N)=C/c2ccc(-c3ccc(S(N)(=O)=O)cc3)o2)nc2ccccc21` it was 962 cells. `O=C(CN(c1cccc(C(F)(F)F)c1)S(=O)(=O)c1ccc(Cl)c([N+](=O)[O-])c1)NCc1ccccc1Cl` displayed a cell count of 285 cells. `Cc1cccc(NS(=O)(=O)c2ccc(C3CCCCC3)cc2)c1` gave a cell count of 431 cells. In the case of `Cc1cc2nc3c(=O)n(C4CCCCC4)c(=O)[nH]c3nc2cc1N` it was 1220 cells. In the case of `Cc1ccc2[nH]c(-c3ccccc3)c(CN(C)C)c(=O)c2c1` it was 1280 cells. On to `OC(COc1cccc2ccccc12)CN1CCN(c2ccccc2Cl)CC1` (stereo not drawn), for which the cell count worked out at 520 cells. With `CCOC(=O)C(=Cc1cc(=O)c(OC)co1)C(=O)OCC`, the cell count was determined as 474 cells. `CCCCCCn1ccc(=N)cc1` registered a cell count of 221 cells.

Consider `CC(C)C(c1nnnn1C1CCCC1)N1CCOCC1` (stereo not drawn), for which the cell count was 1430 cells. Take `Cc1cccc(N2CCN(C(=O)CSCc3c(C)noc3C)CC2)c1C`: the cell count worked out at 259 cells. Turning to `Cc1ccc(Nc2nc(-c3c(C)nc4ccccn34)cs2)cc1`, the cell count turned out to be 424 cells.

Regarding `C=CCSc1nnc(NC(=O)c2cccc(S(=O)(=O)N3CCOCC3)c2)s1`, the cell count is 1310 cells. As to `CC(=O)c1c(COC(=O)c2ccncc2)nc2ccccc2[n+]1[O-]`, the cell count was 967 cells. With `CCc1ccc(-c2nc(CN3CCC(C(=O)N4CCN(c5ccccc5)CC4)CC3)c(C)o2)cc1`, the cell count is 496 cells. As for `Cn1nc(-c2ccc(OCC(=O)NCC3CCCO3)cc2)c2ccccc2c1=O` (stereo not drawn), the cell count was 364 cells.

For the compound `O=C(O)c1ccccc1N/N=C/c1c(Sc2nnnn2-c2ccccc2)nc2ccccn2c1=O`, the cell count turned out to be 1410 cells. Turning to `OCc1ccc(O)c2ncccc12`, the cell count stood at 328 cells. In the case of `O=C(NN=C1CCN(Cc2ccccc2)CC1)c1cccc(S(=O)(=O)Nc2ccccc2Cl)c1` it was 1450 cells.

`COc1ccc(C2NCCc3c2[nH]c2ccccc32)cc1CN1CCc2cc(OC)c(OC)cc2C1C` (stereo not drawn) returned a cell count of 445 cells.

Consider `O=[N+]([O-])c1ccc(N2CCCC2)cc1NC(c1ccccc1)c1ccccc1`, for which the cell count came out at 445 cells. The same measure for `O=[N+]([O-])c1ccc(O)c(/C=N/Nc2ccc(Cl)nn2)c1`: 472 cells; for `C=CCC(c1ccccc1)N(C(C)=O)c1ccco1` (stereo not drawn): 1340 cells; for `O=C1C2C3C=CC(C3)C2C(=O)N1CCc1ccccc1` (stereo not drawn): 877 cells. `Cc1ccc(-n2ncc(C(=O)Nc3cc(Cl)cc(Cl)c3)c2C2CCNCC2)cc1C` returned a cell count of 460 cells. Turning to `COCCn1c(C)cc(C(=O)COc2nc3ccccc3nc2C)c1C`, the cell count stood at 304 cells. In the case of `CC[C@]1(O)C[C@@H]2CN(CCc3c([nH]c4ccccc34)[C@@](C(=O)OC)(c3cc4c(cc3OC)N(C)[C@H]3[C@@](O)(C(=O)OC)[C@H](OC(C)=O)[C@]5(CC)C=CCN6CC[C@]43[C@@H]65)C2)C1`, the cell count is 310 cells.

On to `COCCNC(=S)N/N=C(\C)c1ccc2cc(OC)ccc2c1`, for which the cell count was found to be 1260 cells. As for `Oc1ccc(Nc2nc(NCC3CCCO3)c3ccccc3n2)cc1` (stereo not drawn), the cell count came out at 344 cells.

In turn, `CCCOc1ccc(/C=N/NC(=S)Nc2ccccc2[N+](=O)[O-])c(O)c1` gave a cell count of 440 cells. In the case of `O=C1S/C(=C\c2ccc(N3CCOCC3)o2)C(=O)N1Cc1ccc(F)cc1` it was 1620 cells; in that of `CC1=C/C(=N\OS(=O)(=O)c2ccccc2)C(C(C)C)=CC1=O`, 393 cells.

`O=C1/C(=C/c2ccc(N3CCOCC3)o2)SC(=Nc2ccccc2)N1CCc1c[nH]c2ccccc12`: the cell count was determined as 1550 cells.

In the case of `CC1CCCN(c2nc3c(c(=O)n(C)c(=O)n3C)n2CCSc2nc3ccccc3s2)C1` (stereo not drawn), the cell count came to 610 cells. `NC(=O)CC(NC(=O)c1ccc(Br)cc1)c1ccc(N2CCC(Br)CC2)c([N+](=O)[O-])c1` (stereo not drawn) displayed a cell count of 369 cells. The same measure for `Cc1ccccc1OCC(=O)OC1CCN(C)CC1`: 1520 cells.

Compound `Cc1cccc2nc(CSc3nc4[nH]ncc4c(=O)n3-c3cccc(Cl)c3)cc(=O)n12` yielded a cell count of 443 cells. In the case of `CCc1ccc(-c2nc(CN3CCC(C(=O)NCc4ccccc4OC)CC3)c(C)o2)cc1` it was 437 cells; in that of `CC1Cc2ccccc2N1C1=CC(=O)CCC1` (stereo not drawn), 497 cells.

In the case of `N=c1c2c(n(Cc3cccc(Cl)c3)c3c1CCC3)CCCC2`, the cell count stood at 404 cells.

The compound `COC(=O)c1c(NC(=O)c2nc3ccccc3s2)sc2c1CC(C)(C)NC2(C)C` yielded a cell count of 426 cells. As for `CC(C)(C)NC(=O)CN(C(=O)Cn1nnc(-c2ccc(Cl)cc2)n1)C1CCN(Cc2ccccc2)CC1`, the cell count was determined as 279 cells. On to `CC[n+]1c(/C=C/c2c[nH]c3ccccc23)ccc2cc(C)ccc21`, for which the cell count was found to be 494 cells.

Regarding `Cc1ccc(-n2c(C)nc3oc4ccccc4c(=O)c3c2=O)cc1`, the cell count was determined as 1090 cells. `CC1CCC(C(C)C)C(OC(=O)Cn2c(-c3ccc(Cl)cc3)[n+](C)c3ccccc32)C1` (stereo not drawn) displayed a cell count of 394 cells. Consider `Cc1nn(Cc2ccc(Cl)c(Cl)c2)c(C)c1NC(=O)c1cc(-c2ccco2)on1`, for which the cell count came to 488 cells. Take `CCCCCOC(=O)c1[nH]c2c(c1C)C(=O)CC(c1ccco1)C2` (stereo not drawn): the cell count stood at 486 cells.

As for `O=C(CSc1ncn[nH]1)NCc1ccccc1`, the cell count amounted to 1240 cells. The same measure for `CC1(C)CC(N=c2cc(-c3ccccc3)oc3ccc(Cl)cc23)CC(C)(C)N1`: 436 cells; for `O=[N+]([O-])c1ccc(/C=N/n2cnc3ccccc32)s1`: 242 cells; for `N/C(=N\OC(=O)C1CCCCC1)c1cccc([N+](=O)[O-])c1`: 1360 cells. The same measure for `Cc1ccc(C2C3CN(C(C)C)CC=C3C(C#N)=C(N)C2(C#N)C#N)cc1` (stereo not drawn): 1130 cells. In the case of `CCC(C)(C)c1ccc(OCCCC[n+]2ccccc2)c(C(C)(C)CC)c1`, the cell count is 341 cells. Compound `COc1cc2nc(/C=C/c3ccc(N(C)C)cc3)sc2cc1SC` yielded a cell count of 1340 cells. In turn, `COc1ccc2cc1Oc1ccc(cc1)CC1c3c(cc(OC)c4c3Oc3cc5c(cc3O4)CCNC5C2)CCN1C` (stereo not drawn) returned a cell count of 229 cells.

Take `CC(=O)Nc1ccc(NC2=C(Cl)C(=O)c3ccccc3C2=O)cc1`: the cell count amounted to 321 cells. In the case of `CC(/C=N/NC(=O)c1ccncc1)=C\c1ccc(C(C)C)cc1` it was 1300 cells; in that of `CCN1CCS/C1=C/C=C/C1=[N+](CC)CCS1`, 269 cells. The same measure for `CCOC(=O)c1ccc(CSc2nnc(-c3ccncc3)n2N)cc1`: 1040 cells; for `C=C1C(=O)[C@@]23[C@H](O)C[C@@H]4C(C)(C)CC[C@H](O)[C@@]4(C)[C@@H]2CC[C@@H]1[C@H]3O`: 387 cells. `O=C1/C(=N\S(=O)(=O)c2cccs2)C([n+]2cccc(Cc3ccccc3)c2)=C([O-])c2ccccc21` yielded a cell count of 942 cells. For `O=c1c(Cl)c(Cl)cnn1Cc1nnc(-c2ccc(Cl)cc2)o1`, the cell count turned out to be 366 cells.

In turn, `CCc1ccc(NC(=O)CSc2nc3n[nH]c(C)c3c(=N)n2-c2cccc(OC)c2)cc1` returned a cell count of 463 cells. In the case of `Nc1nnc(-c2cc3c(ccc4ccccc43)oc2=O)s1` it was 1520 cells; in that of `CCc1ccc(/C=C/c2c[nH]c3ccccc23)[n+](CC)c1`, 256 cells; in that of `COc1cc(C)nc(N2CCCC(C(=O)Nc3cccc(Cl)c3C)C2)n1` (stereo not drawn), 772 cells. In the case of `COc1cc([C@@H]2[C@H]3CNCC=C3C(C#N)=C(N)C2(C#N)C#N)ccc1OC(C)C` it was 1320 cells.

Compound `C=CCc1c(C)nc(-c2ccccc2)nc1N/N=C(\C)c1ccc(N)cc1` registered a cell count of 499 cells.

As for `CCC(=O)OCC(=O)c1c(N)n(Cc2ccccc2)c(=O)n(C)c1=O`, the cell count was 1420 cells. In the case of `O=c1c(-c2ccccc2)c1-c1ccccc1` it was 475 cells. The compound `C(=C/c1nccc2c1[nH]c1ccccc12)/c1ccc2c(c1)OCO2` came in with a cell count of 1230 cells.

In turn, `COc1c2c(nc3ccccc13)OC(C(C)(O)COC(C)=O)C2` (stereo not drawn) showed a cell count of 789 cells. Take `CC1CCN(S(=O)(=O)c2ccc3c(c2)c(=O)c(C(=O)N2CCCCC2)cn3C)CC1`: the cell count turned out to be 1130 cells. The same measure for `COc1ccc(-[n+]2c(C)cc(/C=C3\Sc4ccccc4N3C)cc2C)cc1`: 459 cells; for `CN1C(=O)N(C)C2(c3ccccc3)Nn3c(s/c(=C/c4ccccc4)c3=O)=NC12c1ccccc1` (stereo not drawn): 348 cells.

In turn, `CC1CCc2cc(F)ccc2N1C(=O)CCC(=O)O` (stereo not drawn) showed a cell count of 493 cells. On to `On1onc2c3cc(-c4ccccc4)nc3ccc21`, for which the cell count amounted to 488 cells.

The compound `CC(=O)Oc1c(C)cc(Cl)cc1C(=O)Nc1ccc([N+](=O)[O-])cc1Cl` returned a cell count of 494 cells. `CC(=O)OC(C(=O)NCc1ccc(F)cc1)c1ccccn1` (stereo not drawn) yielded a cell count of 1480 cells. In the case of `O=S(=O)(c1ccc(NC(=S)NCCc2ccccc2)cc1)N1CCOCC1` it was 449 cells; in that of `Cc1ccc(NC(=O)CSc2nnc(-c3cnccn3)n2Cc2ccco2)cc1C`, 443 cells. The same measure for `Cc1c(Cl)cccc1N/C(SCC(=O)N1CCCCCC1)=C(/C#N)c1nc2ccccc2s1`: 396 cells; for `CCCCOc1ccc(-c2cc(C(F)(F)F)c(C#N)c(SCC(=O)O)n2)cc1`: 1370 cells. The same measure for `COc1ccc2cc3[n+](cc2c1OC)CCc1cc2c(cc1-3)OCO2`: 394 cells. Compound `CCOc1ccc(-n2c(-c3ccc(Br)cc3)c[n+]3c2CCCCC3)cc1` registered a cell count of 317 cells.

In turn, `CCCCCCc1cc2cc(-c3nnc(-c4ccccc4O)o3)c(=O)oc2cc1O` displayed a cell count of 982 cells.

Compound `Cc1cccc(C)c1NC(=O)C(NC=O)c1ccccc1Cl` (stereo not drawn) gave a cell count of 319 cells. The same measure for `CCCCCn1c2c(c(=N)c3ccccc31)CCC2`: 285 cells; for `Cn1cc(/C=C2\SC(=S)N(NC(=O)c3ccccc3Cl)C2=O)c2ccccc21`: 1240 cells. In the case of `CCN(CC)CCn1c(=N)n(CC(O)c2ccco2)c2ccccc21` (stereo not drawn) it was 456 cells.

Compound `N#C/C(=C\c1ccc(N2CCOCC2)o1)C(=O)NCCc1ccccc1` displayed a cell count of 1530 cells. Compound `CCc1ccc(-n2cc(-c3ccc(F)cc3)[n+]3c2SCCC3)cc1` showed a cell count of 460 cells.
